Reference: PubChem BioAssay AID588342 (National Center for Advancing Translational Sciences (NCATS), 2011)
Hit rate of the full screen: of about 360,000 compounds, about 25,000 (6.9%) were called active. Inconclusive means that the source gave no clear call. Such entries were picked first, then a sample of the others. Calls come from the whole dose curve; as a rule, active = well fitted inhibition curve with a large enough effect; inconclusive = small, poorly fitted or top-dose-only effect; inactive = flat fitted curve, though single readings scatter. A potency beside an inconclusive call is a rough fit, not a confirmed value.

These compounds were tested against Luciferin 4-monooxygenase (Photinus pyralis) (UniProt P08659) (assay: qHTS profiling assay for firefly luciferase inhibitor/activator using purifed enzyme and Km concentrations of substrates (counterscreen for miR-21 project)). Conditions: purified FLuc, luminescence inhibition; activity change, negative = inhibition: at 57.5 µM (top of the series).
Chain of UniProt P08659 (P08659 whole entry, looked up): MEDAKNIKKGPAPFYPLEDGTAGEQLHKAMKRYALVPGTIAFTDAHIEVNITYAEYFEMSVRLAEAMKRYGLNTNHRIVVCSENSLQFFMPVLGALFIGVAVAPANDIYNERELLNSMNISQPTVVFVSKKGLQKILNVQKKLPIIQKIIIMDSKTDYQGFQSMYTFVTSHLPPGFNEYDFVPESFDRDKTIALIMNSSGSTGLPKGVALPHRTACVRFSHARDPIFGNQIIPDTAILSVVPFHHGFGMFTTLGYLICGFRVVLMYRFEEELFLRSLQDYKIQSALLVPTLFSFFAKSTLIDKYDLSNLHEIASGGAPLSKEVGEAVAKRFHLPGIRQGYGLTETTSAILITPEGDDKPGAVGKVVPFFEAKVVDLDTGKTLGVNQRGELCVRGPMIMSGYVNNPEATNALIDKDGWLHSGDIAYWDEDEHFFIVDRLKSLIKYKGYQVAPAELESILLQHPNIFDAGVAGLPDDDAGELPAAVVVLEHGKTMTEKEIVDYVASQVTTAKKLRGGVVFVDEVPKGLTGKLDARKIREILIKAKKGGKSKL
Outline: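 Purified P. pyralis luciferase, 10 nM final, with Km-level 10 uM D-luciferin and 10 uM ATP in 50 mM Tris acetate pH 7.5, 10 mM Mg acetate, 0.01% Tween-20, 0.05% BSA; 6-point qHTS titration about 60 µM downward; luminescence read.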
Note: nearly all actives have a fitted effect of over 55% in size.
Potency is the fitted concentration of half-maximal effect; tags give direction and shape of the fitted curve.
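Throughout, for activity change, negative = inhibition: plate controls were vehicle for no effect and reference inhibitor for full effect.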

Row | SMILES | Potency | activity change, negative = inhibition
1 | COc1ccc(OC)c(-c2csc(NC(=O)Cc3ccccc3)n2)c1 | active: 10.7 µM | –
2 | O=C(N/N=C/c1ccccc1Cl)c1cccc(F)c1 | active: 4.78 µM | –
3 | CCOC(=O)CCc1c(C)nc2cc(-c3ccccc3OC)[nH]n2c1=O | inconclusive: 33.8 µM [inhibitor, partial curve, poor fit] | –
4 | O=C(COc1ccccc1)Nc1ccc2c(c1)nc1n2CCOC1 | inconclusive: 23.9 µM [inhibitor, partial curve] | –
5 | COc1ccc(-c2nc(-c3ccc4c(c3)OCO4)[nH]c2-c2ccc(OC)cc2)cc1 | inactive | –
6 | O=C(c1cc(-c2ccc(Br)cc2)nc2ccccc12)N1CCN(c2ccccc2O)CC1 | inconclusive: 4.26 µM [inhibitor, single point] | –
7 | COc1cccc(N=Cc2c(O)c3ccccc3oc2=O)c1 | active: 1.9 µM | –
8 | O=[N+]([O-])c1cc(Cl)ccc1-c1nc(-c2ccccc2)no1 | active: 1.2 µM | –
9 | CCC(=O)N1CCc2cc(Br)cc(S(=O)(=O)CCC(=O)NCc3ccc(Cl)cc3)c21 | inactive | –
10 | O=S(=O)(c1ccccc1)N1CCN(Cc2cccc(Cl)c2)CC1 | – | inactive: 4.05% [at 2.3 µM]
11 | CCOc1ccc(S(=O)(=O)N2CCN(Cc3ccco3)CC2)cc1 | inactive | –
12 | CCOC(=O)c1cc(CC)sc1NC(=O)c1ccc2c(c1)OCCO2 | – | inactive: 0.226% [at 2.3 µM]
13 | COc1cc2cc(CNc3ccc(C)cc3)c(=O)n(CC(=O)Nc3ccc(F)cc3F)c2cc1OC | inconclusive: 21.3 µM [inhibitor, partial curve, poor fit] | –
14 | CCc1ccc2[nH]c(C(=O)Nc3ccc(C)c(F)c3)cc2c1 | inconclusive: 6.01 µM [inhibitor, partial curve, poor fit] | –
15 | c1ccc(Nc2c(-c3c[nH]c4ccccc34)nc3ccccn23)cc1 | inconclusive: 21.3 µM [inhibitor, partial curve, poor fit] | –
16 | COC(=O)Nc1ccccc1C(=O)N1CCN(c2ccc(C)cc2)CC1 | inconclusive: 23.9 µM [inhibitor, single point] | –
17 | O=C1C(=O)c2c(C(=O)c3ccccc3)coc2-c2ccccc21 | inconclusive: 26.9 µM [inhibitor, partial curve, poor fit] | –
18 | COc1cc(CCN2C(=O)c3cccc4cccc(c34)C2=O)c(S(=O)(=O)N2CCCCCC2)cc1OC | inconclusive: 10.7 µM [inhibitor, partial curve] | –
19 | CCOC(=O)CC(=O)CSc1ncnc2c1cnn2-c1ccccc1 | active: 23.9 µM | –
20 | COC(=O)c1ccc(C(=O)OC)c(NC(=O)COC(=O)c2ccc(OC)c(OC)c2OC)c1 | inactive | –
21 | Cc1ccc2nc(N3CCC(C(=O)N4CCN(c5cccc(Cl)c5)CC4)CC3)[nH]c2c1 | inconclusive: 21.3 µM [inhibitor, partial curve, poor fit] | –
22 | COc1ccccc1OC(C)C(=O)Nc1ccc(-c2nc3ccccc3s2)cc1 (centres undefined) | inconclusive: 37.9 µM [inhibitor, single point] | –
23 | COc1ccc(-c2cn3c(C)c(C(=O)Nc4cc(NC(C)=O)ccc4OC)sc3n2)cc1 | inconclusive: 30.1 µM [inhibitor, partial curve, poor fit] | –

Row | SMILES | Potency | activity change, negative = inhibition
24 | CCc1ccc(NC(=O)CCn2nc(-c3ccccc3OC)c3c(C)cc(C)nc32)cc1 | inconclusive: 19 µM [inhibitor, partial curve, poor fit] | –
25 | CC(C)Cc1ccc(-c2cc(=O)[nH][nH]2)cc1 | active: 16.9 µM | –
26 | O=S(=O)(c1ccc2c(c1)CCC2)N1CCNCC1 | inactive | –
27 | CC(=O)Nc1ccc2nc(NC(=O)COc3ccccc3C)sc2c1 | inconclusive: 37.9 µM [inhibitor, partial curve, poor fit] | –
28 | Cc1cc(C)n(CCc2nc(-c3ccc(-c4ccccc4)cc3)cs2)n1 | active: 6.75 µM | –
29 | Brc1ccccc1-c1nnc(COc2cccc3cccnc23)o1 | inconclusive: 37.9 µM [inhibitor, partial curve, poor fit] | –
30 | COc1ccc(-c2n[nH]c(=S)o2)c(OC)c1 | inconclusive: 26.9 µM [inhibitor, single point] | –
31 | CC(N=Cc1nc(-c2ccccc2)oc1O)c1ccccc1 (centres undefined) | inconclusive: 30.1 µM [inhibitor, single point] | –
32 | COc1ccc(OC)c(NC(=O)CSc2nnc3ccc4ccccc4n23)c1 | inconclusive: 15.1 µM [inhibitor, partial curve] | –
33 | COc1ccc(C(=O)Nc2ccc3ccccc3n2)c(OC)c1OC | active: 0.213 µM | –
34 | Cc1cccc2cc(CN(Cc3ccco3)S(=O)(=O)c3ccc4c(c3)OCCO4)c(=O)[nH]c12 | inconclusive: 23.9 µM [inhibitor, partial curve, poor fit] | –
35 | COc1ccc(CNC(=O)c2cc3cccc(O)c3oc2=N)cc1 | inconclusive: 23.9 µM [inhibitor, partial curve] | –
36 | CN(C)S(=O)(=O)c1cccc(-c2csc(N/N=C/c3ccco3)n2)c1 | inconclusive: 26.9 µM [inhibitor, single point] | –
37 | COc1ccc(-n2cnnc2SCC(=O)c2cc(C)n(Cc3cccs3)c2C)cc1 | inconclusive: 37.9 µM [inhibitor, partial curve, poor fit] | –
38 | CC(C)Cn1[nH]c2c3c(ccc2c1=O)C(=O)c1ccccc1C3=O | inconclusive: 23.9 µM [inhibitor, single point] | –
39 | O=C(C1CC(=O)N(c2ccc(Cl)cc2)C1)N1CCN(Cc2ccc3c(c2)OCO3)CC1 (centres undefined) | inactive | –
40 | Oc1c(Br)cc2oc3c(c2c1CNCc1ccccc1)CCCC3 | inactive | –
41 | O=C(c1ccc(F)cc1)n1c(=S)nc2ccccn21 | active: 0.269 µM | –
42 | Cc1ccc(-c2csc(-c3ccncc3)n2)cc1 | active: 10.7 µM | –
43 | CCOC(=O)Nc1ccc(NC(=O)c2ccccc2F)cc1 | inconclusive: 7.57 µM [inhibitor, partial curve, poor fit] | –
44 | CCC(C)(C)c1ccc(Oc2ccc(N)cc2)cc1 | inconclusive: 23.9 µM [inhibitor, partial curve, poor fit] | –
45 | CCCNC(=O)C(Cc1ccccc1)NC(=O)Cc1ccccc1 (centres undefined) | inactive | –
46 | Cc1c(C(=O)N2CCC[C@H]2CO)oc2c(F)cccc12 | inconclusive: 23.9 µM [inhibitor, single point] | –

Row | SMILES | Potency | activity change, negative = inhibition
47 | CC(C)(C)c1ccc(OCCC(=O)NNC(=O)c2ccncc2)cc1 | inconclusive: 21.3 µM [inhibitor, single point] | –
48 | Cc1ccc(O)c(-c2cc(-c3cccc(F)c3)n[nH]2)c1 | inconclusive: 23.9 µM [inhibitor, single point] | –
49 | O=C(NCC(c1cccnc1)N1CCc2ccccc21)c1cccc(C(F)(F)F)c1 (centres undefined) | inconclusive: 16.9 µM [inhibitor, partial curve, poor fit] | –
50 | COC(=O)c1ccc(OS(=O)(=O)N(C)C)cc1 | inconclusive: 21.3 µM [inhibitor, single point] | –
51 | Cc1cc(F)ccc1NCc1ccccc1-c1nnc(-c2ccccc2Cl)o1 | inconclusive: 9.53 µM [inhibitor, partial curve] | –
52 | CCCNC(=O)CSc1nc2nc(C)c(Cc3ccccc3Cl)c(C)n2n1 | inactive | –
53 | O=C(CSc1nccn1Cc1ccc(F)cc1)Nc1ccc2c(c1)OCCO2 | inconclusive: 23.9 µM [inhibitor, partial curve, poor fit] | –
54 | COC(=O)c1ccc(CSc2nnc(Nc3cccc(OC)c3)s2)o1 | inconclusive: 37.9 µM [inhibitor, partial curve, poor fit] | –
55 | COc1ccc(C(=O)NCC(=O)OCC(=O)Nc2sccc2C#N)cc1OC | inconclusive: 37.9 µM [inhibitor, single point] | –
56 | COc1cc2[nH]c3c(OC)ncnc3c2cc1OC | inconclusive: 37.9 µM [inhibitor, partial curve, poor fit] | –
57 | Cc1csc(NC(=O)CSc2ccc(-c3ccccn3)nn2)n1 | inconclusive: 26.9 µM [inhibitor, single point] | –
58 | CC(C)Cc1csc(NC(=O)c2ccc(F)cc2)c1C(=O)O | inconclusive: 21.3 µM [inhibitor, single point] | –
59 | CCn1c(CSc2nc3ccccc3s2)nnc1SCC(=O)OC(C)(C)C | inconclusive: 23.9 µM [inhibitor, partial curve, poor fit] | –
60 | c1ccc2c3c([nH]c2c1)-c1[nH]ncc1CC3 | inconclusive: 26.9 µM [inhibitor, single point] | –
61 | COc1ccc(OC)c(CNC(=O)Cc2ccc(NC(=O)N3CCCCc4ccccc43)cc2)c1 | inconclusive: 10.7 µM [inhibitor, partial curve] | –
62 | CC(NC(=O)CCSCc1ccccc1F)c1ccccc1 (centres undefined) | inconclusive: 30.1 µM [inhibitor, partial curve, poor fit] | –
63 | COc1ccc2[nH]c(C(=O)N/N=C/c3ccc(O)cc3O)cc2c1 | active: 10.7 µM | –
64 | COC(=O)c1ccccc1NC(=O)COC(=O)C1CCCCC1 | inconclusive: 26.9 µM [inhibitor, partial curve] | –
65 | O=C(NCc1ccccn1)c1ccc(-c2ccccc2)cc1 | active: 12 µM | –
66 | CCc1cc2c(=O)n(Cc3ccccc3)c(SC3CCOC3=O)nc2s1 (centres undefined) | inactive | –
67 | COC(=O)c1cc(NC(=O)c2cc(C)oc2C)cc(C(=O)OC)c1 | inconclusive: 21.3 µM [inhibitor, partial curve, poor fit] | –
68 | COc1ccc(C(C)C)cc1S(=O)(=O)NCCc1c(C)[nH]c2ccc(C)cc12 | inactive | –
69 | CCOc1ccc(-c2nc(C#N)c(NCCCOC)o2)cc1 | inconclusive: 23.9 µM [inhibitor, single point] | –
